Screen size: about 110,000 compounds; about 230 (0.21%) showed an effect of 50% or more. This is one part of the list.
The molecules below were run against DPAP1 (Plasmodium falciparum, UniProt Q8IIJ9) (assay: primary screen, percent inhibition; read by cleavage of a fluorogenic dipeptide substrate; higher = more effect of the substance).
Parameters: species or system P. falciparum D10 trophozoite lysates; single well
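Further: 30 min substrate incubation versus DMSO and 10 µM JCP410 controls.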

DPAP1, sequence (Q8IIJ9 whole entry, looked up): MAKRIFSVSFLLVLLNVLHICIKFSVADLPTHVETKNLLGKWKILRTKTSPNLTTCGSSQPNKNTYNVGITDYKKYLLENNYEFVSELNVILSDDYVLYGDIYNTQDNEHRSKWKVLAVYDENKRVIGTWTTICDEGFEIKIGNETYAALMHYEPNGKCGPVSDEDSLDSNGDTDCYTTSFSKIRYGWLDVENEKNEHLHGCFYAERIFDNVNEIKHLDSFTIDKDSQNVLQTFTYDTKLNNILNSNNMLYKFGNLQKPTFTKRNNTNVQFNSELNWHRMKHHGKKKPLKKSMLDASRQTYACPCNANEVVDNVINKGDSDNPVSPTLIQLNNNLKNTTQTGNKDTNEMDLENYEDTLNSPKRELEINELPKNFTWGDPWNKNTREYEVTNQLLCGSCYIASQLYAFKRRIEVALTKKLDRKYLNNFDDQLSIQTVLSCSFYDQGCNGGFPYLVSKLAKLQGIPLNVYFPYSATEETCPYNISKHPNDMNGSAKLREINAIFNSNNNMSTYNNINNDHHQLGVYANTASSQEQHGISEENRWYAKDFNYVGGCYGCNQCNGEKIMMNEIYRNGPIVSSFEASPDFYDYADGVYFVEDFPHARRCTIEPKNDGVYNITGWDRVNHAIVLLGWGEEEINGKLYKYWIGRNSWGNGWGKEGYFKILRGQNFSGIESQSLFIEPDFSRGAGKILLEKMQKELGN

Point of comparison: CCCN(Cc1c[nH]c2ccccc12)CC1CC1, “% Inhibition @ 10 uM” value 2.7%. Against it:
- COc1ccccc1C1=N/C(=C\c2ccc(Cl)c(Cl)c2)C(=O)O1 — higher, 3.9%
- O=C1C2C3CCC(C3)C2C(=O)N1c1cccc(C(F)(F)F)c1 (centres unmarked) — lower, -3.92%
- O=C(CN1N=C(c2ccccc2)CCC1=O)N1CCOCC1 — higher, 3.79%
- O=C1c2c(c3ccccc3n2Cc2ccccc2)CCN1c1ccccc1 — lower, 0.00178%
- CC(=O)N1CCN(c2cc(C)c([N+](=O)[O-])cc2F)CC1 — lower, -0.711%
- CCOc1ccc(CCNC(=O)C2CCN(c3nnc(N4CCCC4=O)s3)CC2)cc1OCC — higher, 3.87%
- Cc1cc(NCc2ccncc2)nc2ccccc12 — lower, -3.44%
- CC1CN(C(=O)c2ccc(COc3ccccc3Br)o2)CC(C)O1 (centres unmarked) — lower, -1.55%
- O=C1c2cccc3cccc(c23)C(=O)N1CCCC(=O)N1CCCc2ccccc21 — higher, 16.8%
- COCCNC(=O)CN1C(=O)c2ccccc2S1(=O)=O — lower, -1.17%
- COc1ccc(CC(=O)Nc2cccc(Cl)c2)cc1OC — lower, -1.17%
- Cc1ccc2nc3c(cc(C(=O)NCc4cccnc4)c(=N)n3Cc3ccco3)c(=O)n2c1 — lower, -1.47%
- O=C(Nc1ccccc1Cl)N1CCN(c2ccccc2)CC1 — lower, -3.14%
- CC(=O)N1CCN(c2ccc(Cl)cc2[N+](=O)[O-])CC1C (centres unmarked) — lower, 1.43%
- COc1ccc(NC(=O)CN(c2ccc(Br)cc2)S(C)(=O)=O)c(OC)c1 — lower, -5.13%
- COc1cccc(Cn2c(SCc3ccc(C(=O)N4CCCC4)cc3)nc3ccncc32)c1 — lower, 2.65%
- Cc1cc(=O)n2nc(N(C)CC(=O)NCc3cccs3)sc2n1 — lower, -2%
- CN1CCC(N(C)Cc2cccc(Oc3ccccc3)c2)CC1 — lower, -4.94%
- CCCCCOC(=O)NCC(O)c1ccccc1 (centres unmarked) — lower, -4.08%
- COc1ccc(C2CC(C(F)(F)F)n3ncc(C(=O)Nc4ccc5c(c4)OCO5)c3N2)cc1 (centres unmarked) — lower, -1.35%
- Cc1nn(CC(=O)Nc2nnc(CCc3ccccc3)s2)c(C)c1Cl — lower, 0.883%
- COc1cc2c(cc1OC)C(C(=O)NCC1COc3ccccc3O1)C(c1cccs1)N(C)C2=O (centres unmarked) — lower, 1.83%
- COc1cccc(CNCc2c(C(=O)O)n(Cc3cccc(Cl)c3)c3ccccc23)c1 — lower, -3.21%
- Cn1cc(S(=O)(=O)N2CCCC2)cc1C(=O)N1CCN(C2CCCCC2)CC1 — lower, -0.361%
- CC1CCN(C(=O)CCNS(=O)(=O)c2cccc3nsnc23)CC1 — lower, -2.04%
- Cc1cccc(NC(=O)CC(c2ccccc2)c2ccccc2)n1 — lower, -0.053%
- O=C(CN(c1ccc(F)cc1)S(=O)(=O)c1ccc2c(c1)OCCO2)NCc1ccc(Cl)cc1 — lower, 1.1%
- Cc1ccccc1Cc1c(C)nc2c(C(=O)N3CCOCC3)cnn2c1C — lower, -5.92%
- O=C(Cc1ccccc1)Nc1ccccc1C(=O)O — lower, -5.51%
- CNS(=O)(=O)c1ccc(NC(=O)Cn2nc(C(F)F)cc2C)cc1 — higher, 6.65%
- CCOc1ccccc1NS(=O)(=O)c1c(C)cc(C)cc1C — lower, -1.62%
- CCOc1ccc(C(C)(C)C)cc1S(=O)(=O)n1cnc2ccccc21 — higher, 3.93%
- CCOC(=O)N1CCN(C(=O)c2cc3cc4ccc(C)cc4nc3s2)CC1 — lower, -0.148%
- COc1cc2c(C(=O)NCCCN3CC(C)CC(C)C3)cn(CC(C)C)c(=O)c2cc1OC (centres unmarked) — lower, -4.86%
- Cc1nc(O)c2c(n1)OC(N)=C(C#N)C2c1ccc(Cl)cc1 (centres unmarked) — lower, 0.815%
- Cc1ccc(CNC(=O)CCCn2ccc3cc(S(=O)(=O)N4CCCC4)ccc32)cc1 — lower, -5.94%
- CC(=O)NC(CC(=O)c1ccc(Cl)cc1Cl)C(Cl)(Cl)Cl (centres unmarked) — lower, -5.51%
- CCOc1nc(-c2ccccc2)ncc1Oc1ccccc1 — lower, -0.511%
- COc1ccccc1/C=C/CN(C)C1CCN(C)CC1 — higher, 7.79%
- COc1ccc(NC(=O)CC2(c3ccc(C)cc3)CCOC(C)(C)C2)cc1 (centres unmarked) — lower, -7.06%
- Nc1c(C(=O)Nc2cc(F)ccc2F)sc2nc(-c3ccncc3)ccc12 — higher, 8.66%
- O=c1c2ccccc2ncn1CCCn1c(Cc2ccccc2)nc2ccccc21 — lower, -4.39%
- COc1cccc(N2C(=O)CC(N3CCN(Cc4ccccc4)CC3)C2=O)c1 (centres unmarked) — lower, -5.9%
- COc1ccc(C(=O)CCN(C)C)cc1F — higher, 3.01%
- O=S(=O)(c1ccc(-c2cs/c(=N\c3ccccc3)n2CC2CCCO2)cc1)N1CCCCC1 (centres unmarked) — higher, 2.76%
- CCOc1cc(C2NC(S)=NC(C)=C2C(=O)NC)ccc1O (centres unmarked) — lower, -1.33%
- Cc1cc(-c2nc(-c3cccnc3)[nH]c2-c2cc(C)sc2C)c(C)s1 — lower, -2.91%
- COc1ccc(C(=O)N2CCn3c2nc2ccccc23)cc1OC — lower, -5.1%
- O=C1NC2=C(C(=O)c3ccccc32)C(c2ccc(Cl)cc2)S1 (centres unmarked) — higher, 9.86%
- OCCN(CC#CC(O)(c1ccccc1)c1cccc(F)c1)CCO (centres unmarked) — lower, -1.33%
- O=C(O)CC(CC(=O)c1ccccc1)c1ccccc1 (centres unmarked) — lower, 2.65%
- O=C(NC(c1ccccc1)c1ccccc1)c1cccnc1 — lower, 0.135%
- CC(=O)N(C)c1ccccc1C(=O)O — lower, -8.51%
- CC1CCN(C(=O)CN(C)S(=O)(=O)c2cccc3nsnc23)CC1 — lower, -1.43%
- O=C(c1cnc2c(c1)COc1ccccc1-2)c1cc(Br)ccc1O — lower, -5.35%
- Cc1cccc(NC2=NC(=O)/C(=C\c3cccc(O)c3)S2)c1 — higher, 8.75%
- COc1ccc(CCNS(=O)(=O)c2ccc(CCN3C(=O)c4cccnc4C3=O)cc2)cc1OC — lower, -0.231%
- N#CC1=C(N)NC(SCC(=O)Nc2ccc(Br)cc2)=C(C#N)C12CCCCC2 — higher, 6.15%
- COCCCNC(=O)c1nnc(-c2ccc3c(c2)OCO3)o1 — lower, -3.8%
- O=C(CSc1nc2c(c(=O)n1Cc1ccccc1)SCC2)NCc1ccco1 — higher, 4.29%
- Cc1ccccc1-c1nc(-c2ccc(Br)cc2)no1 — higher, 5.32%
- O=C(O)c1nc(O)nc2ccccc12 — higher, 3.54%
- CCOC(=O)/C(C#N)=C/c1c(OCC)n(CC)c2ccccc12 — lower, 2.22%
- N#Cc1c(C(F)(F)F)cc(-c2ccccc2)nc1S — higher, 73.6%
- CC(C)(C)N(Cc1ccc([N+](=O)[O-])cc1)CC(O)COc1ccccc1 (centres unmarked) — higher, 3.34%
- CC1CCN(C(=O)C2CCN(S(=O)(=O)c3cc(Cl)ccc3Cl)CC2)CC1 — lower, -0.641%
- Cc1cccc(Cc2c(C)nc3c(C(=O)O)cnn3c2C)c1 — higher, 5.99%
- CCCCCCN1C(=O)C(O)=C(C(C)=O)C1c1ccc(Cl)cc1 (centres unmarked) — lower, 1.37%
- CCc1ccccc1NC(=O)CSCC(=O)Nc1ccc(C)cc1 — lower, 1.08%
- Cc1cc2c(cc1Br)NC(=O)C21C(C#N)=C(N)OC2=C1C(=O)CC(c1ccccc1)C2 (centres unmarked) — higher, 2.76%
- COc1ccccc1N1CCN(C(=O)COc2ccc(Cl)cc2Cl)CC1 — higher, 6.8%
- CSc1ccc(CCNC(=O)CCCN2C(=O)c3ccccc3Sc3ncccc32)cc1 — lower, -4.46%
- COc1ccc(OC)c(NCc2ccc(C(F)(F)F)cc2)c1 — lower, -0.603%
- CC1CC(C)CN(C(=O)CCn2nc(-c3ccc(Cl)cc3)ccc2=O)C1 (centres unmarked) — lower, 1.62%
- CCCCSC1=C(C#N)C(=O)NC(C)(C)S1 — lower, 1.72%
- COc1ccc(-c2ncnn2-c2ccc(Br)cc2F)cc1 — lower, 1.29%
- COc1ccc(N(CC(=O)NCc2ccccc2)S(C)(=O)=O)cc1Cl — lower, -3.78%
- O=C(c1ccc(F)cc1)N(Cc1ccccc1)c1ccccn1 — lower, -5.16%
- COc1ccccc1-n1c(C)cc(/C=C2/C(=N)N3C=C(C)SC3=NC2=O)c1C — lower, -4.84%
- C1=C(CCNc2nn3nnnc3c3ccccc23)CCCC1 — lower, -0.436%
- C=CCSc1nc(=O)c2c(n1C)NC(=O)CC2c1ccc(OCC)c(OC)c1 (centres unmarked) — lower, -2.88%
- COc1cccc(NC(=O)c2c(Cl)nc(C)c(Cl)c2C)c1 — lower, -3.65%
- CC1=C(CCN2CCN(c3ccc(F)cc3)CC2)C(C)(C)CCC1 — higher, 3.15%
- Cc1nn2c(=O)/c(=C/c3cccs3)sc2nc1=O — lower, 1.91%
- CC1(C)Cn2c(nc(=O)c3c2NC(=O)C3(O)C(F)(F)F)S1 (centres unmarked) — lower, -1.11%
- O=C(NC1CCCc2ccccc21)C1CCN(S(=O)(=O)c2cccc3nonc23)CC1 (centres unmarked) — higher, 5.74%
- Cc1cc(C)c(/C(O)=C/C2=NCCNC2=O)c(C)c1 — lower, -3.09%
- Cc1nn(CCCC(=O)NCCCN(Cc2ccccc2)C(C)C)c(=O)c2c1sc1ccccc12 — lower, -3.76%
- O=C1C2C3CCC(O3)C2C(=O)N1Cc1ccncc1 (centres unmarked) — higher, 8.94%
- Cc1cc(C)c(S(=O)(=O)c2ccccc2)cc1C — lower, -3.58%
- CCOc1ccccc1-n1c(C)cc(C)nc1=O — lower, -1.17%
- COc1cc(N(C)C)c([N+](=O)[O-])cc1C(=O)N1CC(C)NC(C)C1 (centres unmarked) — lower, -5.38%
- CC1=CC(C)(C)N(Cc2ccc([N+](=O)[O-])cc2)c2cc(C)c(C)cc21 — lower, -1.54%
- O=C1CC2C(=O)NCCN2C(NC(=O)c2ccccc2)=N1 (centres unmarked) — higher, 4.96%
- CC(O)CN(Cc1ccccc1)CC(C)O (centres unmarked) — higher, 4.28%
- CCn1ccnc(N2CCOCC2)/c1=N/c1ccc(OC)cc1 — higher, 3.05%
- O=C1C=C2c3ccccc3CC3(CCCC3)N2C1=O — lower, -0.28%
- N#CC1=C(N)Oc2[nH]nc(-c3cccs3)c2C1c1cc2c(cc1Cl)OCO2 (centres unmarked) — higher, 3.62%
- CC(C)(C)c1ccc(C(=O)Nc2cc(-c3ccccc3)no2)cc1 — lower, -5.08%
- CC1(c2ccc3c(c2)OCO3)NC(=O)NC1=O (centres unmarked) — lower, -6.68%

From PMC6919601, “Identification of Plasmodium dipeptidyl aminopeptidase allosteric inhibitors by high throughput screening” (PLoS ONE, 2019)
